# Several values for one entry are separate records, joined by “and”; a condition that tells them apart may be missing. Equal values may be shown once. The campaign covered roughly 360,000 compounds. About 16,000 (4.4%) were called active. The inconclusive results got no clear call from the source; some entries with a clear call stand among them for comparison. The call rests on the fitted dose curve; in most records, active means well fitted inhibition curve with a large enough effect; inconclusive means small, poorly fitted or top-dose-only effect; inactive means no such curve, though single readings can be large or run the other way. Potencies beside an inconclusive call are fits to weak or partial responses and may not hold up.
# Target: Bromodomain adjacent to zinc finger domain protein 2B (Homo sapiens) (UniProt Q9UIF8)
# Assay: qHTS Assay for Inhibitors of BAZ2B; further: nearly all actives have a fitted effect of over 60% in size
# Settings: AlphaScreen BAZ2B-H3K14Ac peptide displacement; series mostly up to 114 µM
# Method in brief: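 AlphaScreen displacement: compounds (up to 110uM) incubated 30 min at room temperature with a preformed 50 nM BAZ2B/50 nM biotinylated H3K14Ac peptide complex in PBS pH 7.4 with Tween-20. Donor and acceptor beads at 10 ug/mL final added, 20 min light-protected before reading.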
# Potency means the concentration at half of the fitted maximal effect; tags describe the fitted curve by direction and shape.
# UniProt Q9UIF8, sequence (Q9UIF8 whole entry, looked up, the tested form may be a part): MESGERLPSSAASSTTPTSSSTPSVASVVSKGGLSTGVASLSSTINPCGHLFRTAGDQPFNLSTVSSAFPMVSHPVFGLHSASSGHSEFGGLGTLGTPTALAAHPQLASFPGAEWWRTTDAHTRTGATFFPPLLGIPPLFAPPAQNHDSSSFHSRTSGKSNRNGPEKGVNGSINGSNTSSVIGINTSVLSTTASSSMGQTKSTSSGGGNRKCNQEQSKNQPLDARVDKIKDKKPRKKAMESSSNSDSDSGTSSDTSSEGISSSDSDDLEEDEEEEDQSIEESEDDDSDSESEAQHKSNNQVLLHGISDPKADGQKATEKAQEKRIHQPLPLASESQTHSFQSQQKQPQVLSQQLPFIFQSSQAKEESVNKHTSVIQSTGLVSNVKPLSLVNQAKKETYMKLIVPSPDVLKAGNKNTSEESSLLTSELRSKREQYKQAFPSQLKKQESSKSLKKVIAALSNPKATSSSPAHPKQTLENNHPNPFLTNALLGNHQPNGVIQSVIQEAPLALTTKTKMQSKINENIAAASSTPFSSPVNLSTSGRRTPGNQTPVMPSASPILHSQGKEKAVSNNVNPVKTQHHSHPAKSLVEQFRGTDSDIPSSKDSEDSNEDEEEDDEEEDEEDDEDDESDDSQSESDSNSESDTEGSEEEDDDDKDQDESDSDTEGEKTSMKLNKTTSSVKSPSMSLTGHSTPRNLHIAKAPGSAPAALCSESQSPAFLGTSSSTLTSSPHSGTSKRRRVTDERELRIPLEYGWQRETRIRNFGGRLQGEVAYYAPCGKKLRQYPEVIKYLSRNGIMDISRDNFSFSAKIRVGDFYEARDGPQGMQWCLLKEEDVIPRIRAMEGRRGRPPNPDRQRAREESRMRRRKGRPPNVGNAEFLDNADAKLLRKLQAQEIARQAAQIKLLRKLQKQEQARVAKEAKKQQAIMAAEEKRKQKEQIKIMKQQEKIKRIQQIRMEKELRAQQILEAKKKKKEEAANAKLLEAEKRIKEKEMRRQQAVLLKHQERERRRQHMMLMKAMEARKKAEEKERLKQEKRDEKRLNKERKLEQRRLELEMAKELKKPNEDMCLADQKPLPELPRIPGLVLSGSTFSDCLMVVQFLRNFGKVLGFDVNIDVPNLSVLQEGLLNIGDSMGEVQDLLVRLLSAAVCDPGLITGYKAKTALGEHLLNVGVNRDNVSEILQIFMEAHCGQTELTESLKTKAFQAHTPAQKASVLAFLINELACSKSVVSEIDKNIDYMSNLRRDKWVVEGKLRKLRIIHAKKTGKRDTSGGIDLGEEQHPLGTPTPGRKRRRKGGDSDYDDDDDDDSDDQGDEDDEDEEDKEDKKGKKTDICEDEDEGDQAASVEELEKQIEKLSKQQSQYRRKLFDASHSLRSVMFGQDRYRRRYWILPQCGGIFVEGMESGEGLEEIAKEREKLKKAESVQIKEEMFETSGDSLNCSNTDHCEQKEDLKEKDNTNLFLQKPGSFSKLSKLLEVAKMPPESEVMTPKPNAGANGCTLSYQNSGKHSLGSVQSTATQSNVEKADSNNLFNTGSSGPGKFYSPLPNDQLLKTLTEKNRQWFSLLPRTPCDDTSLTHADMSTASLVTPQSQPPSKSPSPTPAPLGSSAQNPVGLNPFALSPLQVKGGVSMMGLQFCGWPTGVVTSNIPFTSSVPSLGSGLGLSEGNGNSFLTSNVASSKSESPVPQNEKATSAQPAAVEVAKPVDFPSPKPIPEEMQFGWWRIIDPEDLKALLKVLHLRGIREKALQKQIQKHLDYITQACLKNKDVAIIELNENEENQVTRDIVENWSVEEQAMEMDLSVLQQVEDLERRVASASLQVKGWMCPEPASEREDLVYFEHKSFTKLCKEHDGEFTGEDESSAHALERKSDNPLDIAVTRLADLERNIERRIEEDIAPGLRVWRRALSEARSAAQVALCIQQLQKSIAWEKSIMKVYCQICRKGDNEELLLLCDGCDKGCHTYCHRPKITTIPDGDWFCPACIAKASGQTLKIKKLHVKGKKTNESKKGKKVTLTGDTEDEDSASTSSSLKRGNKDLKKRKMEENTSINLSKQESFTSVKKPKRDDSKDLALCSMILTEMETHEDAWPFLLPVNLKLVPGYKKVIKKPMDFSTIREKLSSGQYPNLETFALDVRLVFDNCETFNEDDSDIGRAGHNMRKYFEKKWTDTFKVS
row,Compound,Potency
1,Cc1nc(NC(=O)CCc2ccccc2)sc1C,"inconclusive: 89.1 µM [inhibitor, single point]"
2,Cc1cc(CN2CCN(c3ccccc3F)CC2)cs1,"inconclusive: 79.4 µM [inhibitor, single point]"
3,Cc1cccc(NC(=O)CSc2nnc3[nH]c(=O)cc(-c4ccccc4)n23)c1C,inactive
4,CCOc1ccc(CNCc2c(C(=O)O)c(C)n(Cc3cccc(OC)c3)c2C)cc1OC,inactive
5,Cc1cc(OCCCCCNCCO)ccc1Cl,inactive
6,CN1CCN(/N=C/c2ccc(-c3ccc([N+](=O)[O-])cc3)o2)CC1,"inconclusive: 50.1 µM [inhibitor, partial curve]"
7,COc1cc2[nH]c(=S)nc(NCCC(C)C)c2cc1OC,"inconclusive: 50.1 µM [inhibitor, partial curve]"
8,CCOC(=O)N1CCN(C(=O)c2cn(C)c3ccc(S(=O)(=O)N4CCOCC4)cc3c2=O)CC1,inactive
9,COc1ccccc1/C=C/C=N/NC(=O)CCn1cnc2ccccc21,"inconclusive: 79.4 µM [inhibitor, single point]"
10,CCc1sc(NC(C)=O)nc1-c1ccccc1,"inconclusive: 50.1 µM [inhibitor, partial curve]"
11,O=C(CSc1nc2sc3c(c2c(=O)n1-c1ccccc1)CCCC3)N/N=C/c1ccccc1C(=O)O,"inconclusive: 56.2 µM [inhibitor, partial curve]"
12,CC(=O)N1CCN(c2ccc(NCc3ccc(C(C)C)cc3)cc2)CC1,active: 35.5 µM
13,O=CN/C=C/c1cc(O)ccc1O,active: 79.4 µM
14,CC(C)OCCCNC(=O)c1ccc(CSc2nc3cccnc3n2Cc2ccccc2)cc1,inactive
15,CC(C)Cn1c(/C=N/Nc2nc3ccccc3[nH]2)nc2ccccc21,"inconclusive: 3.98 µM [inhibitor, full curve]"
16,CCOc1ccccc1OCCCC(=O)NC1=NCCS1,"inconclusive: 89.1 µM [inhibitor, single point]"
17,Cc1ccccc1OCc1ccc(-c2nc(C#N)c(NCc3cccnc3)o2)o1,active: 31.6 µM
18,CCOC(=O)/C=C/C(=O)Nc1ccc(S(=O)(=O)Nc2c(C)cc(C)cc2C)cc1,inactive
19,COc1ccc(Br)cc1CNC(=O)C1CCN(c2nnc(N3CCCC3=O)s2)CC1,"inconclusive: 89.1 µM [inhibitor, single point]"
20,COc1ccc(CCN(Cc2ccccn2)C(=S)Nc2ccccc2F)cc1OC,"inconclusive: 44.7 µM [inhibitor, partial curve]"
21,Cc1cc2c(s1)CCCCC(=O)N2,"inconclusive: 89.1 µM [inhibitor, single point]"
22,CN(CC(=O)Nc1ccc(Cl)c(Cl)c1)C(=O)CN1C(=O)NC2(CCCC2)C1=O,inactive
23,CC(NC(=O)CN(c1ccccc1F)S(C)(=O)=O)c1ccccc1 (stereo not given),"inconclusive: 89.1 µM [inhibitor, single point]"
24,COc1ccc(Nc2oc(-c3ccco3)nc2S(=O)(=O)c2ccc(F)cc2)cc1,"inconclusive: 39.8 µM [inhibitor, partial curve]"
25,Cn1c(C(=O)Nc2cccc(C(F)(F)F)c2)cc2c(=O)n3ccccc3nc21,inactive

row,Compound,Potency
1,C#Cc1ccc([C@@H]2C=C(C(=O)O)O[C@H](OCc3ccc(CO)cc3)C2)cc1,inactive
2,CCc1ccc(C(=O)c2cn(CC(=O)Nc3ccc4c(c3)OCO4)c3ccc(OC)cc3c2=O)cc1,active: 79.4 µM
3,Cc1ccc(C(=O)C2=C(O)C(=O)N(Cc3ccco3)C2c2ccc(N(C)C)cc2)o1 (stereo not given),active: 35.5 µM
4,Cc1cc(C(=O)COc2ccc(F)cc2Br)c(C)n1C,"inconclusive: 79.4 µM [inhibitor, single point]"
5,COc1cc(NC(=O)c2cccc3c2C(=O)N(C2CCCCC2)C3)cc(OC)c1OC,"inconclusive: 31.6 µM [inhibitor, partial curve]"
6,Cc1ccc2oc3nc(C)c(C(=O)O)cc3c(=O)c2c1,"inconclusive: 56.2 µM [inhibitor, partial curve, poor fit]"
7,CCOc1ccc(-c2nc(N)ncc2-c2ccc(OC)cc2)c(O)c1,"inconclusive: 44.7 µM [inhibitor, partial curve]"
8,Fc1ccc([C@@H]2CCNC[C@H]2COc2ccc3c(c2)OCO3)cc1,"inconclusive: 50.1 µM [inhibitor, partial curve]"
9,Oc1ccccc1-c1nc(/C=C/c2ccccc2Cl)nn1-c1ccccc1,inactive
10,COc1ccc(CCNc2nc(N3CCCCC3)nc(N3CCCCC3)n2)cc1OC,"inconclusive: 89.1 µM [inhibitor, single point]"
11,C=CCNCCCCOc1ccc(OCc2ccccc2)cc1,active: 50.1 µM
12,CCN(CC)c1ccc(NC(=O)c2nc3nc(C)cc(C(F)F)n3n2)cc1,"inconclusive: 44.7 µM [inhibitor, partial curve]"
13,COc1cccc(/C=C2\SC(=S)N(C(Cc3ccccc3)C(=O)O)C2=O)c1 (stereo not given),"inconclusive: 44.7 µM [inhibitor, partial curve]"
14,CCN1C(=O)C(O)(CC(=O)c2ccc(-n3cccc3)cc2)c2ccccc21 (stereo not given),"inconclusive: 79.4 µM [inhibitor, single point]"
15,CNc1ncnc2c1cnn2-c1ccc(C)c(C)c1,inactive
16,Cc1ccccc1CNC(=O)CCCn1c(=O)c2cccn2c2cccnc21,inactive
17,CC(C)(C=O)C1=CC(=O)c2ccccc2C1=O,active: 50.1 µM
18,Cc1ccc(S(=O)(=O)Nc2c(C(=O)O)[nH]c3ccccc23)c(C)c1,"inconclusive: 89.1 µM [inhibitor, single point]"
19,COCCn1nnnc1C(c1cccc(C(F)(F)F)c1)N1CCN(Cc2ccccc2)CC1 (stereo not given),"inconclusive: 3.55 µM [inhibitor, full curve, poor fit]"
20,OC(CSc1ccccc1Cl)CN1CCN(c2ccc(F)cc2)CC1 (stereo not given),"inconclusive: 44.7 µM [inhibitor, partial curve]"
21,O=C(/C=C/c1ccc(F)cc1)c1ccccc1Br,inactive
22,CN(Cc1ccco1)C(=O)CCc1nc2sc3c(c2c(=O)[nH]1)CCCC3,"inconclusive: 39.8 µM [inhibitor, partial curve]"
23,NC(CO)C(=O)NNCc1ccc(O)c(O)c1O (stereo not given),active: 4.47 µM
24,COc1ccc(NC(=O)c2ccc(-n3c(C)ccc3C)cc2)c(OC)c1,"inconclusive: 79.4 µM [inhibitor, single point]"
25,CCN(Cc1ccc(N(C)C)cc1)C(C)C(=O)Nc1ccc(S(=O)(=O)N2CCCC2)cc1 (stereo not given),active: 39.8 µM

row,Compound,Potency
1,CCOC(=O)Cc1csc(N/C(=N/S(=O)(=O)c2ccc(Cl)cc2)c2ccccc2)n1,inactive
2,O=C(NC1CCCC1)c1sc(=S)n2c1[nH]c(=O)c1ccccc12,"inconclusive: 39.8 µM [inhibitor, partial curve]"
3,CN(C)S(=O)(=O)N(CC(=O)Nc1cccc(F)c1)c1ccccc1,"inconclusive: 10 µM [inhibitor, single point]"
4,O=C(CSc1ccccn1)N/N=C/c1cc([N+](=O)[O-])ccc1O,active: 44.7 µM
5,COc1ccc(N2CCN(C(=O)c3ccc(NS(=O)(=O)c4cccs4)cc3)CC2)cc1,"inconclusive: 50.1 µM [inhibitor, partial curve]"
6,COc1ccccc1N1CCN(CC(=O)Nc2ccc(CN3CCCCC3)cc2)CC1,active: 50.1 µM
7,CCOC(=O)Cc1nnc(NC(=O)c2ncn[nH]2)s1,active: 8.91 µM
8,CC(=O)Oc1cc2cccc(OC(C)=O)c(=O)c2c(OC(C)=O)c1OC(C)=O,active: 1.58 µM
9,Cc1ccccc1OCc1nc2ccc(S(=O)(=O)N3CCOCC3)cc2[nH]1,"inconclusive: 7.08 µM [inhibitor, full curve]"
10,CCOC(=O)C1=C(c2ccccc2)NC(N)=NC1c1ccc(OCc2ccc(Cl)cc2)c(OC)c1 (stereo not given),"inconclusive: 28.2 µM [inhibitor, partial curve]"
11,O=[N+]([O-])c1ccc(N2CCCCC2)s1,inactive
12,Cn1c(=O)c2c(=O)cc(NNC(=O)CC#N)[nH]c2n(C)c1=O,inactive
13,Oc1ccc(CNc2ccccc2F)c2cccnc12,active: 25.1 µM and active: 14.1 µM
14,CN(C)c1ccc(N=Nc2ccc(S(=O)(=O)O)cc2)c2ccccc12,active: 10 µM
15,Cc1ccc2c(c1)C1CN(C)CCC1N2Sc1ccccc1[N+](=O)[O-] (stereo not given),active: 15.8 µM
16,COc1cccc(NC(=O)c2cc(-c3ccc(C)o3)nc3ccccc23)c1,"inconclusive: 56.2 µM [inhibitor, partial curve]"
17,CC(=O)Nc1ccc(Oc2nc(-c3ccccn3)nc3ccccc23)cc1,"inconclusive: 2.51 µM [inhibitor, full curve, poor fit]"
18,CCOC(=O)c1c(C)[nH]c(C)c1C(=O)COC(=O)c1cc(OC)c(OC)cc1OC,"inconclusive: 89.1 µM [inhibitor, single point]"
19,COc1cccc(OC)c1C(=O)NC(=S)Nc1ccc2c(c1)Cc1ccccc1-2,inactive
20,O=C(c1cccnc1)N1CCN(S(=O)(=O)c2cccc(Cl)c2)CC1,inactive
21,Cn1c(=O)oc2cc(S(=O)(=O)Nc3cccc(C(=O)O)c3)ccc21,"inconclusive: 100 µM [inhibitor, single point]"
22,COCCN1C(=O)N(c2cccc(C)c2)C(=O)C1CC(=O)Nc1ccc(OC)cc1 (stereo not given),inactive
23,CCOC(=O)N1CCN(Cc2ccccn2)CC1,"inconclusive: 89.1 µM [inhibitor, single point]"
24,O=C(NCN1C(=O)C2C3C=CC(C3)C2C1=O)Nc1nccs1 (stereo not given),inactive
25,CCOC(=O)C1CCCN(C(=O)c2nn(-c3ccc(C)cc3)c(=O)n(C)c2=O)C1 (stereo not given),inactive

# Reference: PubChem BioAssay AID504333 (National Center for Advancing Translational Sciences (NCATS), 2011)
